Measurements from the supplement of paper PMC9588766.
Where a name gives a salt, the structure may show the parent alone. Over roughly 1,900 compounds, “cell viability of compound + 1 nM pemigatinib relative to pemigatinib-only (DMSO) wells” has its median near 0.95; the lowest 2% begin near 0.22. The list shows a part of the results.

Test system: PDC-DUC18828
Experiment: cell viability of compound + 1 nM pemigatinib relative to pemigatinib-only (DMSO) wells (fraction); PDC-DUC18828 is a patient-derived cholangiocarcinoma cell line; higher = less growth inhibition
Conditions: first compound 1 µM; pemigatinib concentration 1 nM; 72 h
Procedure: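 Selleck Bioactive library screen in the patient-derived FGFR2 fusion-positive ICC cell line PDC-DUC18828 (500 cells/well). Each compound was tested at 1 uM with 1 nM pemigatinib, in triplicate, for 72 h. Viability was read by CellTiter-Glo and normalised to plate DMSO controls. Value is the paper's averaged normalised viability.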

For COC(=O)N[C@H](C(=O)N1CCC[C@H]1c1ncc(-c2ccc(-c3ccc(-c4cnc([C@@H]5CCCN5C(=O)[C@@H](NC(=O)OC)C(C)C)[nH]4)cc3)cc2)[nH]1)C(C)C + CCN1C(=O)N(c2c(F)c(OC)cc(OC)c2F)Cc2cnc3[nH]c(CN4CCOCC4)cc3c21 [pemigatinib], which cell viability is on record?
The cell viability was 0.839.

With CC(C(=O)O)c1cccc(C(=O)c2ccccc2)c1 (stereo not drawn) [Ketoprofen] + CCN1C(=O)N(c2c(F)c(OC)cc(OC)c2F)Cc2cnc3[nH]c(CN4CCOCC4)cc3c21 [pemigatinib] as the compound, how does the cell viability read?
Its cell viability is 1.02.

Which cell viability does the source give for Cc1cc(C)c2c(c1)[C@@H](N(Cc1cc(C(F)(F)F)cc(C(F)(F)F)c1)c1nnn(C)n1)CCCN2C[C@H]1CC[C@H](C(=O)O)CC1 + CCN1C(=O)N(c2c(F)c(OC)cc(OC)c2F)Cc2cnc3[nH]c(CN4CCOCC4)cc3c21 [pemigatinib] here?
The cell viability was 0.906.

How did the cell viability turn out when CCOC(=O)c1ncn2c1CN(C)C(=O)c1cc(F)ccc1-2 [Flumazenil] + CCN1C(=O)N(c2c(F)c(OC)cc(OC)c2F)Cc2cnc3[nH]c(CN4CCOCC4)cc3c21 [pemigatinib] was run?
The cell viability was 0.998.

CC1=C(C(=O)Nc2cc3cn[nH]c3cc2F)C(c2ccc(C(F)(F)F)cc2)CC(=O)N1 (stereo not drawn) + CCN1C(=O)N(c2c(F)c(OC)cc(OC)c2F)Cc2cnc3[nH]c(CN4CCOCC4)cc3c21 [pemigatinib] was tested. Which cell viability did it give?
The cell viability was 1.05.

With CNC(=O)c1ccccc1Nc1nc(Nc2ccc(N3CCOCC3)cc2OC)ncc1Cl + CCN1C(=O)N(c2c(F)c(OC)cc(OC)c2F)Cc2cnc3[nH]c(CN4CCOCC4)cc3c21 [pemigatinib] as the compound, how does the cell viability read?
The cell viability was 0.706.

With COc1ccc(/C=C\c2cc(OC)c(OC)c(OC)c2)cc1O [Combretastatin A4] + CCN1C(=O)N(c2c(F)c(OC)cc(OC)c2F)Cc2cnc3[nH]c(CN4CCOCC4)cc3c21 [pemigatinib] as the compound, how does the cell viability read?
Its cell viability is 0.281.

With COc1cc(C(C)=O)ccc1OCCCN1CCC(c2noc3cc(F)ccc23)CC1 [Iloperidone] + CCN1C(=O)N(c2c(F)c(OC)cc(OC)c2F)Cc2cnc3[nH]c(CN4CCOCC4)cc3c21 [pemigatinib] as the compound, how does the cell viability read?
Its cell viability is 1.02.

Which cell viability does the source give for CCCC1O[C@@H]2C[C@H]3[C@@H]4CCC5=CC(=O)C=C[C@]5(C)[C@H]4[C@@H](O)C[C@]3(C)[C@]2(C(=O)CO)O1 (stereo partly drawn) [Budesonide] + CCN1C(=O)N(c2c(F)c(OC)cc(OC)c2F)Cc2cnc3[nH]c(CN4CCOCC4)cc3c21 [pemigatinib] here?
The cell viability was 0.976.

With CNC(=O)[C@@H](c1ccccc1)N1CCc2cc(OC)c(OC)cc2[C@@H]1CCc1ccc(C(F)(F)F)cc1 [Almorexant HCl] + CCN1C(=O)N(c2c(F)c(OC)cc(OC)c2F)Cc2cnc3[nH]c(CN4CCOCC4)cc3c21 [pemigatinib] as the compound, how does the cell viability read?
Its cell viability is 1.07.

Which cell viability does the source give for NCCCC[C@@H]1NC(=O)[C@@H](Cc2ccccc2)NC(=O)[C@H](CC(=O)O)NC(=O)CNC(=O)[C@H](CCCN=C(N)N)NC1=O [Cyclo (-RGDfK)] + CCN1C(=O)N(c2c(F)c(OC)cc(OC)c2F)Cc2cnc3[nH]c(CN4CCOCC4)cc3c21 [pemigatinib] here?
The cell viability was 0.94.

With c1cc(-c2cnn3cc(-c4ccc(N5CCNCC5)cc4)cnc23)c2cccnc2c1 + CCN1C(=O)N(c2c(F)c(OC)cc(OC)c2F)Cc2cnc3[nH]c(CN4CCOCC4)cc3c21 [pemigatinib] as the compound, how does the cell viability read?
Its cell viability is 0.954.

How did the cell viability turn out when CC(C)NCC(O)c1ccc(O)c(O)c1 (stereo not drawn) [Isoprenaline HCl] + CCN1C(=O)N(c2c(F)c(OC)cc(OC)c2F)Cc2cnc3[nH]c(CN4CCOCC4)cc3c21 [pemigatinib] was run?
Its cell viability is 0.917.

For CS(=O)(=O)N1CCN(Cc2cc3nc(-c4cccc5[nH]ncc45)nc(N4CCOCC4)c3s2)CC1 + CCN1C(=O)N(c2c(F)c(OC)cc(OC)c2F)Cc2cnc3[nH]c(CN4CCOCC4)cc3c21 [pemigatinib], which cell viability is on record?
Its cell viability is 0.865.

How did the cell viability turn out when COc1ccc2[nH]c([S@@+]([O-])Cc3ncc(C)c(OC)c3C)nc2c1 [Esomeprazole Sodium] + CCN1C(=O)N(c2c(F)c(OC)cc(OC)c2F)Cc2cnc3[nH]c(CN4CCOCC4)cc3c21 [pemigatinib] was run?
Its cell viability is 0.991.

Which cell viability does the source give for COc1ccc2[nH]c([S@@+]([O-])Cc3ncc(C)c(OC)c3C)nc2c1 [Esomeprazole Magnesium] + CCN1C(=O)N(c2c(F)c(OC)cc(OC)c2F)Cc2cnc3[nH]c(CN4CCOCC4)cc3c21 [pemigatinib] here?
The cell viability was 0.98.

Cc1cc(N2CCOCC2)cc2[nH]c(-c3c(NC[C@@H](O)c4cccc(Cl)c4)cc[nH]c3=O)nc12 + CCN1C(=O)N(c2c(F)c(OC)cc(OC)c2F)Cc2cnc3[nH]c(CN4CCOCC4)cc3c21 [pemigatinib] was tested. Which cell viability did it give?
The cell viability was 0.705.

For Nc1nc2c(ncn2COCCO)c(=O)[nH]1 [Aciclovir] + CCN1C(=O)N(c2c(F)c(OC)cc(OC)c2F)Cc2cnc3[nH]c(CN4CCOCC4)cc3c21 [pemigatinib], which cell viability is on record?
The cell viability was 0.938.

COc1ccc(C(=O)CC(=O)c2ccc(C(C)(C)C)cc2)cc1 [Avobenzone] + CCN1C(=O)N(c2c(F)c(OC)cc(OC)c2F)Cc2cnc3[nH]c(CN4CCOCC4)cc3c21 [pemigatinib] was tested. Which cell viability did it give?
The cell viability was 0.942.

Which cell viability does the source give for CC1(C)CCC[C@]2(C)[C@H]3CC(=O)O[C@]3(C)CC[C@@H]12 [Sclareolide] + CCN1C(=O)N(c2c(F)c(OC)cc(OC)c2F)Cc2cnc3[nH]c(CN4CCOCC4)cc3c21 [pemigatinib] here?
The cell viability was 0.944.

COc1c(N2C[C@@H]3CCCN[C@@H]3C2)c(F)cc2c(=O)c(C(=O)O)cn(C3CC3)c12 [Moxifloxacin HCl] + CCN1C(=O)N(c2c(F)c(OC)cc(OC)c2F)Cc2cnc3[nH]c(CN4CCOCC4)cc3c21 [pemigatinib] was tested. Which cell viability did it give?
Its cell viability is 1.08.

With CC(=O)OCC(=O)[C@@]1(O)[C@H](C)C[C@H]2[C@@H]3CCC4=CC(=O)C=C[C@]4(C)[C@@]3(F)[C@@H](O)C[C@@]21C [Dexamethasone Acetate] + CCN1C(=O)N(c2c(F)c(OC)cc(OC)c2F)Cc2cnc3[nH]c(CN4CCOCC4)cc3c21 [pemigatinib] as the compound, how does the cell viability read?
The cell viability was 0.786.

How did the cell viability turn out when O=C(O)C(Cc1c[nH]c2ccccc12)N1C(=O)c2ccccc2C1=O (stereo not drawn) + CCN1C(=O)N(c2c(F)c(OC)cc(OC)c2F)Cc2cnc3[nH]c(CN4CCOCC4)cc3c21 [pemigatinib] was run?
The cell viability was 0.87.
